Our source for the MIC values is the supplement of paper PMC9927326.

MIC of clinical C. albicans isolates, CLSI broth microdilution (ranges and time not stated); higher = less susceptible. Call: susceptible or wild type [S] / resistant or non-wild type [R] by CLSI breakpoints or epidemiological cut-offs; intermediate and dose-dependent carry no call here (the paper groups them with resistant). '<=' and '>=' mark each drug's lowest and highest value, inferred; the source prints them plain. Isolates are numbered anew. Bounds are passed on as bounds.

Assay in all cases: CLSI broth microdilution.
Compound in one test: CCC(C)n1ncn(-c2ccc(N3CCN(c4ccc(OCC5COC(Cn6cncn6)(c6ccc(Cl)cc6Cl)O5)cc4)CC3)cc2)c1=O [itraconazole]
Compound in the next test: C[C@@H]1[C@H](O)[C@@H](C)/C=C/C=C/C=C/C=C/C=C/C=C/C=C/[C@H](O[C@@H]2O[C@H](C)[C@@H](O)[C@H](N)[C@@H]2O)C[C@@H]2O[C@](O)(C[C@@H](O)C[C@@H](O)[C@H](O)CC[C@@H](O)C[C@@H](O)CC(=O)O[C@H]1C)C[C@H](O)[C@H]2C(=O)O [amphotericin B]
Compound in another test: Nc1[nH]c(=O)ncc1F [flucytosine]
Compound in a further test: CCCCCOc1ccc(-c2cc(-c3ccc(C(=O)N[C@H]4C[C@@H](O)[C@@H](O)NC(=O)[C@@H]5[C@@H](O)[C@@H](C)CN5C(=O)[C@H]([C@H](O)CC(N)=O)NC(=O)[C@H]([C@H](O)[C@@H](O)c5ccc(O)c(OS(=O)(=O)O)c5)NC(=O)[C@@H]5C[C@@H](O)CN5C(=O)[C@H]([C@@H](C)O)NC4=O)cc3)no2)cc1 [micafungin]
Compound in another test: OC(Cn1cncn1)(Cn1cncn1)c1ccc(F)cc1F [fluconazole]
Compound in a further test: C[C@@H](c1ncncc1F)[C@](O)(Cn1cncn1)c1ccc(F)cc1F [voriconazole]
Compound in a further test: CC[C@H](C)C[C@H](C)CCCCCCCCC(=O)N[C@H]1C[C@@H](O)[C@@H](NCCN)NC(=O)[C@@H]2[C@@H](O)CCN2C(=O)[C@H]([C@H](O)CCN)NC(=O)[C@H]([C@H](O)[C@@H](O)c2ccc(O)cc2)NC(=O)[C@@H]2C[C@@H](O)CN2C(=O)[C@H]([C@@H](C)O)NC1=O [caspofungin]
Compound in a further test: CCCCCOc1ccc(-c2ccc(-c3ccc(C(=O)N[C@H]4C[C@@H](O)[C@@H](O)NC(=O)[C@@H]5[C@@H](O)[C@@H](C)CN5C(=O)[C@H]([C@@H](C)O)NC(=O)[C@H]([C@H](O)[C@@H](O)c5ccc(O)cc5)NC(=O)[C@@H]5C[C@@H](O)CN5C(=O)[C@H]([C@@H](C)O)NC4=O)cc3)cc2)cc1 [anidulafungin]
Compound in another test: CC[C@@H]([C@H](C)O)n1ncn(-c2ccc(N3CCN(c4ccc(OC[C@@H]5CO[C@@](Cn6cncn6)(c6ccc(F)cc6F)C5)cc4)CC3)cc2)c1=O [posaconazole]

As to “Candida albicans isolate 92 (Erg11p: V488I,E266D, Fur1p: WT, Tac1p: N896S,I558V,A377V,F189S,N174D,M170I,K87N)”, the MIC with itraconazole came out at 0.12 mg/L [S]; in the test with amphotericin B, 0.5 mg/L [S]; with flucytosine, 0.12 mg/L [S]; with micafungin, 0.03 mg/L [S]; with fluconazole, 1 mg/L [S]; in the test with voriconazole it was 0.03 mg/L [S]. Moreover, the MIC with caspofungin was 0.06 mg/L [S]; with anidulafungin, at most 0.015 mg/L [S]; in the test with posaconazole, 0.06 mg/L [S].

For “Candida albicans isolate 93 (Erg11p: V437I,E266D, Fur1p: WT, Tac1p: F189S,N174D,M170I,A90T,K87N)”, the MIC with itraconazole was 0.03 mg/L [S]; with amphotericin B it was 0.5 mg/L [S]; with flucytosine it was at most 0.06 mg/L [S]; in the test with micafungin, 0.015 mg/L [S]; with fluconazole, 0.25 mg/L [S]; with voriconazole, at most 0.008 mg/L [S]. The MIC in the test with caspofungin is 0.06 mg/L [S]; with anidulafungin, 0.03 mg/L [S]; with posaconazole, 0.015 mg/L [S].

On to “Candida albicans isolate 94 (Erg11p: E266D,G129A, Fur1p: WT, Tac1p: R869Q,A715T,L695F,I558V,A377V,F189S,M170V,L131I)”, for which the minimum inhibitory concentration (MIC) with itraconazole is at most 0.015 mg/L [S]; with amphotericin B, 0.25 mg/L [S]; in the test with flucytosine it was at most 0.06 mg/L [S]; with micafungin it was 0.015 mg/L [S]; in the test with fluconazole, 0.25 mg/L [S]; with voriconazole it was at most 0.008 mg/L [S]. Moreover, the MIC with caspofungin is 0.015 mg/L [S]; with anidulafungin, at most 0.015 mg/L [S]; with posaconazole, 0.015 mg/L [S].

Regarding “Candida albicans isolate 95 (Erg11p: V488I,E266D, Fur1p: WT, Tac1p: N896S,I895T)”, the MIC with itraconazole is at most 0.015 mg/L [S]; in the test with amphotericin B, 0.25 mg/L [S]; in the test with flucytosine it was at most 0.06 mg/L [S]; with micafungin, 0.015 mg/L [S]; in the test with fluconazole it was 0.25 mg/L [S]; with voriconazole it was at most 0.008 mg/L [S]. Further, the minimal inhibitory concentration (MIC) with caspofungin is 0.03 mg/L [S]; with anidulafungin it was at most 0.015 mg/L [S]; with posaconazole it was 0.015 mg/L [S].

Take “Candida albicans isolate 96 (Erg11p: WT, Fur1p: WT, Tac1p: N896S)”: the minimum inhibitory concentration (MIC) in the test with itraconazole was 0.06 mg/L [S]; with amphotericin B, 0.5 mg/L [S]; with flucytosine, at most 0.06 mg/L [S]; in the test with micafungin, at most 0.008 mg/L [S]; with fluconazole it was 0.25 mg/L [S]; with voriconazole, at most 0.008 mg/L [S]. The figures for the minimal inhibitory concentration (MIC) with caspofungin, in the test with anidulafungin and in the test with posaconazole were 0.06 mg/L [S], 0.03 mg/L [S] and 0.015 mg/L [S], respectively.

As for “Candida albicans isolate 97 (Erg11p: Y132H,T123I, Fur1p: R101C, Tac1p: WT)”, the minimal inhibitory concentration (MIC) with itraconazole is 0.06 mg/L [S]; in the test with amphotericin B, 0.5 mg/L [S]; with flucytosine, 0.12 mg/L [S]; with micafungin, 0.015 mg/L [S]; with fluconazole, 4 µg/mL; with voriconazole it was 0.25 µg/mL. For the same test system, the figures for the MIC in the test with caspofungin, in the test with anidulafungin and in the test with posaconazole were 0.015 mg/L [S], at most 0.015 mg/L [S] and 0.03 mg/L [S], respectively.

In the case of “Candida albicans isolate 98 (Erg11p: E266D, Fur1p: WT, Tac1p: C908Y,A377V,N174D,M170I,I109N,K87N)”, the MIC was 0.03 mg/L [S] with itraconazole; 0.5 mg/L [S] with amphotericin B; at most 0.06 mg/L [S] in the test with flucytosine; 0.015 mg/L [S] in the test with micafungin; 0.5 mg/L [S] with fluconazole; at most 0.008 mg/L [S] with voriconazole. The minimum inhibitory concentration (MIC) in the test with caspofungin is 0.03 mg/L [S]; with anidulafungin, at most 0.015 mg/L [S]; with posaconazole it was 0.015 mg/L [S].

Take “Candida albicans isolate 99 (Erg11p: E266D, Fur1p: WT, Tac1p: T885K,I558V,A430V,A377V,F189S,N174D,M170I,M170V,K87N)”: the minimal inhibitory concentration (MIC) with itraconazole was at most 0.015 mg/L [S]; with amphotericin B, 0.5 mg/L [S]; with flucytosine it was at most 0.06 mg/L [S]; with micafungin it was at most 0.008 mg/L [S]; with fluconazole it was 0.25 mg/L [S]; with voriconazole it was at most 0.008 mg/L [S]. Moreover, the MIC with caspofungin was 0.03 mg/L [S]; in the test with anidulafungin it was at most 0.015 mg/L [S]; with posaconazole, 0.015 mg/L [S].

With “Candida albicans isolate 100 (Erg11p: V488I,E266D, Fur1p: WT, Tac1p: 896S,M170V,S108N)”, the MIC with itraconazole is 0.03 mg/L [S]; with amphotericin B it was 0.25 mg/L [S]; with flucytosine, at most 0.06 mg/L [S]; with micafungin, at most 0.008 mg/L [S]; in the test with fluconazole, 0.5 mg/L [S]; in the test with voriconazole, 0.015 mg/L [S]. Besides, the minimal inhibitory concentration (MIC) in the test with caspofungin, in the test with anidulafungin and in the test with posaconazole was 0.03 mg/L [S] in each case.
